# Measurements as given in patent publication US10751422B2, “Antibody drug conjugates (ADC) that bind to FLT3 proteins” (AGENSYS, INC., priority 2015, dated 2020).
# B1: CHv62.21: FLT3 MAb, human IgG1/kappa, heavy chain SEQ ID NO: 9, light chain SEQ ID NO: 10, CHO cell ATCC PTA-121831 (antibody, listed as Homo sapiens)
# heavy: EVQLVESGGGLVRPGGSLRLSCAASGFTFSGYSINWVRQAPGKGLEWVSSISSSSNYIYYADSVKGRFTISRDNAKNSLYLQMNSLRAEDTAVYYCAREGFIAGTTFDAFDIWGQGTMVTVSS[skipping human IgG1 constant region]
# light: DIQMTQSPSSLSASVGDRVTITCRASQGIRNDLGWYQQKPGKAPKRLIYAASSLQSGVPSRFSGSGSGTEFTLTISSLQPEDFATYYCLQHNGFPYTFGQGTKLEIKRTVAAPSVFIFPPSDEQLKSGTASVVCLLNNFYPREAKVQWKVDNALQSGNSQESVTEQDSKDSTYSLSSTLTLSKADYEKHKVYACEVTHQGLSSPVTKSFNRGEC
# modifications: CHv62.21 heavy chain; CHv62.21 light chain
# What was measured:
# FLT3 = experiment: FACS binding to AML and B-ALL cell lines grown in vitro; parameters: species or system human; conditions: for Geometric Mean fluorescence: antibody 10 ug/ml
# Protocol: CHv62.21 was tested for binding to AML and B-ALL cell lines grown in vitro. (See, FIGS. 15A-15M). Briefly, CHv62.21 and an isotype matched control antibody were biotinylated using NHS LC biotin. In vitro, exponentially grown cancer cell lines were used for all experiments. Cells were harvested by and washed by centrifugation. Cells were Fc blocked to reduce non-specific binding. Antibodies were diluted to 10 ug/ml final concentration and co-incubated with cells at 4° C. for 1 hour. At the end of the incubation, cells were washed and incubated with secondary detection Streptavidin-PE antibody at a final 1:200 (2.5 ug/ml) dilution for 1 hour at 4° C. After washing un-bound secondary antibody, cells were analyzed by FACS and geometric mean fluorescence was determined and reported. Fluorescence ratio was calculated as follows: Geo mean cHv62.21/Geo mean isotype control=MFR, a measure of fold expression above isotype control.
# Geometric Mean values and Mean Florescence ratios (MFR) values were obtained (Table VI) and histograms are shown (FIGS. 15A-15M).
# EOL-1 and SEM = experiment: ADCC activity in vitro (CytoTox 96 LDH assay), target cells EOL-1 and SEM; assay type: cell-based; conditions: effector normal human PBMC, E:T=100:1, 2.5 ug/mL, 4 hours
# Protocol: CHv62.21 and CHv62.21pAF was tested for ADCC activity in vitro. Briefly, the naked and ADC anti-FLT3 monoclonal antibodies, CHv62.21 and CHv62.21pAF were tested for their ability to mediate antibody dependent cytotoxicity activity (ADCC) using the target cell lines EOL-1 and SEM in the presence of the effector cells, normal human PBMCs using the CytoTox 96® Non-Radioactive Cytotoxicity Assay (Promega, G1780).
# One (1) day prior to performing the assay, three (3) vials of the effector cells, normal human PBMC (Hemacare, Donor ID: 1888), were thawed, washed and plated into T-175 cell culture flasks in RPMI-1640 supplemented with 10% heat inactivated fetal bovine serum. The flasks were stored in an incubator at 37° C. […]
# The test samples were each diluted to a final concentration of 2.5 ug/mL in assay buffer. […] The activity of lactate dehydrogenase in the supernatant was determined by using the colorimetric LDH Detection Kit; CytoTox 96® Non-Radioactive Cytotoxicity Assay (Promega) with absorbance readings taken at 490 nm.
# The data was analyzed by first subtracting the average of absorbance values of the Culture Medium Background wells from all absorbance values of Experimental, Effector spontaneous, Target spontaneous and Target maximum wells. Next, the average of the corrected absorbance readings was normalized and ADCC activity was calculated by using the following formula: […]
# [1] = target: T1, Recombinant human FLT3-Fc (Homo sapiens, UniProt P36888); experiment: FLT3 ligand blocking assay on Luminex microspheres; assay type: binding; conditions: biotinylated FLT3 ligand 5 ng/mL; antibody 10 μg/mL; 60 minutes
# T1 construct: purchased R and D Systems
# From the text: In one experiment, the CHv62.21 MAb of the invention was confirmed to not block FL. Briefly, Recombinant human FLT3-Fc was purchased from R and D Systems. This protein was immobilized onto the surface of activated Luminex microspheres using standard sulfo-NHS/EDC chemistry according to the procedure provided by Luminex. A His-tagged version of the protein, along with several other proteins were conjugated to Luminex microspheres, and served as controls in this procedure.
# In addition, FLT3 ligand was also purchased from R and D Systems. The ligand was biotinylated using Thermo Scientific EZ-Link Sulfo-NHS-LC-Biotin, No-Weigh Formula according to the manufacturer's recommendations. After two (2) hours of reacting the protein with Sulfo-NHS-LC-Biotin, unincorporated biotin was removed by dialysis against DPBS.
# The ability of FLT3 immobilized onto the surface of the microspheres to bind to its biotinylated ligand was assessed by reacting the microspheres with various concentrations of biotinylated ligand, prepared in buffer containing PBS, 2% BSA, 0.05% Tween 20, and 0.1% sodium azide, for 120 minutes at RT with gentle shaking. […] Biotinylated FLT3 ligand bound to its immobilized receptor was detected with Streptavidin-R-Phycoerythrin (Moss, Inc.). The fluorescence associated with the microspheres was measured with the Luminex instrument. […]
# Flt3 protein = Flt3 protein (Homo sapiens, UniProt P36888); experiment: Binding to FLT3 recombinant protein by ELISA
# Protocol: The CHv62.21 MAb secreted from recombinant cells is also evaluated for binding to FLT3 recombinant protein by ELISA.
molecule,measurement,setting,value
B1,binding to human cancer cell lines (summary of FACS),FLT3; AML and B-ALL cell lines,binds several human cancer cell lines
same,Geometric Mean fluorescence,FLT3; EOL-1 (AML),14000
same,Mean Florescence ratio (MFR),"FLT3; Karpas-299 (ALCL), Geo mean antibody/Geo mean isotype control",1
same,Geometric Mean fluorescence,FLT3; Karpas-299 (ALCL),634
same,Geometric Mean fluorescence,FLT3; MOLM-13 (AML),14000
same,Geometric Mean fluorescence,FLT3; MONOMAC-1 (AML),11400
same,Geometric Mean fluorescence,FLT3; MV-4-11 (AML),2875
same,Geometric Mean fluorescence,FLT3; NALM-1 (CML),12900
same,Geometric Mean fluorescence,FLT3; OCI-AML2 (AML),5646
same,Geometric Mean fluorescence,FLT3; PL-21 (AML),3715
same,Geometric Mean fluorescence,FLT3; REH (ALL),16200
same,Geometric Mean fluorescence,"FLT3; RS4, 11 (B-ALL)",18400
same,Geometric Mean fluorescence,FLT3; SEM (B-ALL),132000
same,Geometric Mean fluorescence,FLT3; SKM-1 (AML),3208
same,Geometric Mean fluorescence,FLT3; THP-1 (AML),19700
same,ADCC activity,EOL-1 and SEM,do not show ADCC activity
same,blocking of FLT3 ligand (FL) binding to immobilized FLT3,[1],is a non FL blocker
same,"binding to FLT3 protein, CHO vs hybridoma derived material",Flt3 protein,identical
